Among all 420,000 compounds or so, about 50,000 (12%) were called active. Inconclusive means that the source gave no clear call. Such entries were picked first, then a sample of the others. The call rests on the fitted dose curve; in most records, active means well fitted inhibition curve with a large enough effect; inconclusive means small, poorly fitted or top-dose-only effect; inactive means flat fitted curve, though single readings scatter. Potencies of inconclusive entries are left out as doubtful fits.
Test: qHTS for Inhibitors of human tyrosyl-DNA phosphodiesterase 1 (TDP1): qHTS in cells in presence of CPT; further: nearly all actives have a fitted effect of over 55% in size
Settings: chicken DT40 Tdp1-/-;hTDP1 cells + 20 nM CPT, ATP luminescence, 48 h; activity change, negative = growth inhibition: at 46.2 µM (top of the series) unless noted
Summary of the method: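 Chicken DT40 Tdp1-/- cells stably complemented with human TDP1 were seeded at 400 cells/well in medium containing 20 nM camptothecin, exposed to pin-transferred compounds, and grown at 37 °C for at least 48 hr. Viability was read as ATP luminescence.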
On the % scale 0 is the no-effect control and ±100 the full control effect; potency means the concentration at half of the fitted maximal effect; tags describe the fitted curve by direction and shape.

| SMILES | Potency | activity change, negative = growth inhibition |
| --- | --- | --- |
| COc1cc2c(cc1OC)CN(CC(=O)Nc1ccccc1C#N)CC2 | inconclusive [inhibitor, single point] |  |
| COC(=O)Cc1ccc(NC(=S)N2CCN(CCO)CC2)cc1 | inactive |  |
| COc1ccc2c(c1OC)OCC(c1ccc(OC)c(OC)c1OC)C2 (stereo not given) | inactive |  |
| NC(=S)N/N=C/c1ccc2cccc(OCc3ccccc3)c2n1 | inconclusive [inhibitor, single point] |  |
| CCCCNC(=O)c1cc2c(=O)n3cccc(C)c3nc2n(CCN2CCOCC2)c1=N | inconclusive [inhibitor, single point] |  |
| C=C1C(=O)c2sccc2C(c2ccc(OC)c(OC)c2)C1COC(C)=O (stereo not given) | active: 0.517 µM |  |
| CCn1c(=O)sc2cc(NC(=O)c3cccc(OC)c3)ccc21 | inconclusive [inhibitor, partial curve] |  |
| COc1ccc(S(=O)(=O)N2CCOCC2)cc1C(=O)NC1CCCCC1 | inactive |  |
| CCOC(=O)c1cccc(NC(=O)c2cc3sccc3n2C)c1 | inconclusive [inhibitor, single point] |  |
| COc1cc(NC(=O)CSc2nc(C3CC3)nc3ccccc23)cc(OC)c1 | inactive |  |
| OC1(C2(O)CC(c3ccccc3)ON2)CCCCC1 (stereo not given) | inconclusive [inhibitor, single point] |  |
| COc1cccc(C=C2SC(=S)NC2=O)c1 | inconclusive [inhibitor, single point] |  |
| N#CCSc1nnc(COc2cccc3ccccc23)n1-c1cccc(Cl)c1 | inconclusive [inhibitor, single point] |  |
| COc1ccccc1CNC(=O)C(=O)c1cn(CC(=O)N2CCCCC2)c2ccccc12 | inconclusive [inhibitor, partial curve] |  |
| O=C(Cn1ccn(-c2ccc(F)c(F)c2)c(=O)c1=O)c1ccc(F)cc1 | inactive |  |
| COc1ccc(N2CCN(C(=O)Cc3nn(C)c(=O)c4ccccc34)CC2)cc1 | inconclusive [inhibitor, partial curve] |  |
| CCOC(=O)c1sc(-c2ccc(OC)cc2)cc1N | inconclusive [inhibitor, single point] |  |
| CCCCCC(=O)NC(NC(=S)NC1CCS(=O)(=O)C1)C(Cl)(Cl)Cl (stereo not given) | inconclusive [inhibitor, partial curve] |  |
| CN(CCOc1ccc(Cl)cc1)C(=O)c1cccc(S(=O)(=O)N2CCN(c3ccc(F)cc3)CC2)c1 | active: 7.31 µM |  |
| O=S(=O)(c1ccccc1)C1Cc2ccccc2C1Cl (stereo not given) | inactive |  |
| CCOc1ccc(Cn2c(CNS(=O)(=O)c3c(C)cc(C)cc3C)nc3cccnc32)cc1 | inconclusive [inhibitor, single point] |  |
| CS(=O)(=O)N(CC(=O)N1CCN(Cc2ccccc2)CC1)c1cccc(Cl)c1 | inconclusive [inhibitor, single point] |  |
| CC1(C(=O)NS(=O)(=O)c2ccc3c(c2)CCO3)CCN1C(=O)C1(c2ccc(Cl)cc2)CCC1 (stereo not given) | inconclusive [inhibitor, single point] |  |
| Nc1nonc1-n1nnc(C(=O)N/N=C/c2ccc(OCc3ccccc3)cc2)c1CNc1ccccc1 | inactive |  |

| SMILES | Potency | activity change, negative = growth inhibition |
| --- | --- | --- |
| CN1CCC[C@H]1CCNc1ccc2c(=O)c3ccccc3n(C)c2c1 | inconclusive [inhibitor, single point] |  |
| CCC(C)n1c(SCc2ccc(C(C)(C)C)cc2)nc2ccsc2c1=O (stereo not given) | active: 13 µM |  |
| O=C(/C=C/c1cccc([N+](=O)[O-])c1)NC(=S)Nc1cccc(NC(=O)c2ccccc2Cl)c1 | active: 14.6 µM |  |
| Cc1nnc(NC(=O)CSc2nccn2-c2ccc(Cl)cc2)s1 | inconclusive [inhibitor, full curve, poor fit] |  |
| CN(C)C(=O)c1ccc(-c2nc(NCc3cccs3)c3ccccc3n2)cc1 | inconclusive [inhibitor, single point] |  |
| O=S(=O)(c1ccc2ccccc2c1)n1cccn1 | inactive |  |
| O=C(NCCOC(=O)c1ccccc1)c1ccc([N+](=O)[O-])cc1 | inconclusive [inhibitor, single point] |  |
| Cc1cccc(NC(=S)NC2CC3CCCC(C2)N3CC(C)C)c1C (stereo not given) | inactive |  |
| C[C@H](CO)N1C[C@H](C)[C@@H](CN(C)C(=O)NC2CCCCC2)Oc2c(NC(=O)CCC(F)(F)F)cccc2C1=O | inconclusive [inhibitor, single point] |  |
| CC(=O)Nc1cc2c(cc1Cl)-c1ccc(F)cc1C2O (stereo not given) | inconclusive [inhibitor, full curve, poor fit] |  |
| CCOC(=O)c1c(C)[nH]c(C(=O)OCC(=O)Nc2sccc2C(N)=O)c1C | active: 1.64 µM |  |
| Cc1ccc(S(=O)(=O)Nc2cccc3c2O[C@H](CN(C)Cc2ccccc2)[C@@H](C)CN([C@H](C)CO)C3=O)cc1 | inconclusive [inhibitor, single point] |  |
| Cc1cc(C)n(-c2cccc(C(=O)NCC3Cc4cccc(-c5ccccn5)c4O3)c2)n1 (stereo not given) | inconclusive [inhibitor, single point] |  |
| COc1ccc(S(=O)(=O)Nc2ccccc2C(F)(F)F)cc1 | inactive |  |
| COCCC1CCCCN1Cc1cn(-c2ccccc2)nc1-c1ccc2c(c1)OCO2 (stereo not given) | inactive |  |
| COC(=O)C(C)Oc1ccc2cc(-c3ccccc3)c(=O)oc2c1 (stereo not given) | inactive |  |
| COC(=O)c1cc(-c2c(C)oc3cc(OC)ccc3c2=O)c(C)o1 | active: 11.6 µM |  |
| COc1cc([N+](=O)[O-])cc(/C=N/NC(=O)Cn2cncn2)c1O | inactive |  |
| Cc1ccn(CCNC(=O)C2CCC(=O)N(Cc3ccc(Cl)cc3)C2)n1 (stereo not given) | inactive |  |
| O=C(NCc1ccco1)c1cnn2c(C(F)F)cc(-c3ccccc3)nc12 | inactive |  |
| O=S(=O)(c1ccccc1)c1nc(-c2cccs2)oc1SCc1ccccc1Cl | inconclusive [inhibitor, partial curve] |  |
| O=C(NCc1ccc(F)c(F)c1)c1cccc2c(-c3cccnc3)coc12 | inconclusive [inhibitor, single point] |  |
| O=C(/C=C/c1ccccc1)c1ccc(NC2=NCCCS2)cc1 | active: 14.6 µM |  |
| Cc1ccc(OCc2nc(-c3ccc(C(=O)N4CCN(c5cc(Cl)ccc5C)CC4)cc3)oc2C)cc1 | active: 23.1 µM |  |

| SMILES | Potency | activity change, negative = growth inhibition |
| --- | --- | --- |
| COC(=O)c1ccc(CSc2ccccc2NC(=S)Nc2cccc(SC)c2)o1 | inconclusive [inhibitor, single point] |  |
| CCNC(=O)C1(C)CCCN1C(=O)c1c(F)cccc1F (stereo not given) | inactive |  |
| NC(=O)c1ccc(NC(=O)COC(=O)C2(c3cccc(F)c3)CCCC2)cc1 | inconclusive [inhibitor, single point] |  |
| Cc1ccc(NC(=O)C2(N(CC(C)C)C(=O)Cn3nnnc3N)CCCCC2)cc1 |  | inconclusive: -32.5% [inhibitor] |
| COC(=O)c1ccc(C(=O)OC)c(NC(=O)N2CC3CCCN3c3ccccc32)c1 (stereo not given) | inconclusive [inhibitor, single point] |  |
| CC(C)[C@H](NS(=O)(=O)c1ccc(Cl)cc1)C(=O)OCC(=O)c1c(N)n(C)c(=O)n(C)c1=O | inconclusive [inhibitor, single point] |  |
| Cc1ccc(C(=O)NC(=S)Nc2ccc(N3CCOCC3)cc2)cc1C | inconclusive [inhibitor, single point] |  |
| O=C(CSc1nnc(Cc2csc(Nc3cccc(Cl)c3)n2)o1)N1CCc2ccccc21 | active: 18.4 µM |  |
| Clc1ccc2c(Cl)cc[n+](CCC3CCCCC3)c2c1 | inconclusive [inhibitor, single point] |  |
| Cc1ccc(Cl)cc1N1CCN(C(=O)C2CCN(c3nnc(-n4cccc4)s3)CC2)CC1 | inconclusive [inhibitor, single point] |  |
| Cc1ccc(/C=C2\SC(=S)N(CCCC(=O)N3CCOCC3)C2=O)cc1 | inconclusive [inhibitor, single point] |  |
| COc1ccc(Cl)cc1C(=O)NNC(=O)c1[nH]c(C)c(C(C)=O)c1C | inconclusive [inhibitor, single point] |  |
| Cc1c(Cc2ccccc2)c(=O)oc2cc(OCC(=O)NCC(O)c3ccccc3)ccc12 (stereo not given) | inconclusive [inhibitor, single point] |  |
| O=C(COc1cccc(Cl)c1)Nc1ccc(N2CCOCC2)cc1 | inactive |  |
| CNC(=S)N/N=C/c1cn(Cc2c(F)cccc2Cl)c2ccccc12 | inconclusive [inhibitor, single point] |  |
| O=S(=O)(Nc1cccc(-n2cnnn2)c1)c1cccc(Cl)c1 | inactive |  |
| O=C(c1ccccc1Cl)N1N=C(c2ccc(Br)cc2)CC1c1nc2ccccc2[nH]1 (stereo not given) | inconclusive [inhibitor, single point] |  |
| CC(=O)Nc1ccc(NC(=O)c2cccc3c2-c2ccccc2C3=O)cc1 | active: 20.6 µM |  |
| COc1ccc(-c2cc(C(=O)Nc3ccc(C(N)=O)cc3)c3ccccc3n2)cc1 | active: 8.2 µM |  |
| CCOC(=O)c1c(-c2ccc(C)cc2)csc1NC(=O)c1cc(=O)c2cc(Cl)ccc2o1 | inactive |  |
| CC(C)(C)c1ccc(C2C(C(=O)c3ccco3)=C(O)C(=O)N2CC2CCCO2)cc1 (stereo not given) | inconclusive [inhibitor, single point] |  |
| CCOC(=O)c1cc(-c2ccccc2)n(-c2cccc(C(=O)Nc3cccc(C)c3)c2)c1C | inconclusive [inhibitor, partial curve] |  |
